Measurements: the supplement of paper PMC11417369
The list shows a part of the results.

These sequences were tested on PfSIP2 AP2 domain 1 (GST-tagged) (assay: gcPBM binding intensity (ln(normalized median fluorescence intensity)); higher = stronger DNA binding).
In short: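 GST-tagged P. falciparum DNA-binding domains, expressed in E. coli (about 25 μg on average), were applied for 1 h to an Agilent 4 × 180k array of primer-extended double-stranded 36-bp intergenic genomic probes plus negative controls. The binding buffer was 1× PBS with 1% milk, 0.2 mg/ml BSA, 0.5% salmon testes DNA and 0.03% Triton X-100. Bound protein was detected with Alexa488 anti-GST antibody and scanned at 488 nm. Binding intensity is the highest Masliner-normalised natural-log median intensity across replicate spots of either probe orientation.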

| Sequence | gcPBM binding intensity (ln) |
| --- | --- |
| TATATATTAGAAGATAGTACATATATATTTATTAAT [XGTACX_site1011] | 6.99 |
| TGGTGATCAAAATATACATGCATATGTTCTGTTATT [TGCATGCA_site614] | 7.06 |
| TATGATATCTATAATACACACATATACATAAGATCT [CACACA_site6652] | 7.03 |
| TTATATAAAACATTAACACACAAAGAAAAAAAATTA [CACACA_site1793] | 6.88 |
| TTAATATAACTTTTTGCACACTTAATTTTTTTTTTT [CACACA_site3364] | 7.03 |
| AAAACAAATGCTTAAAGTACTTATTATTTTTCTTTT [XGTACX_site6324] | 7 |
| TTCCTACTATTCAAACGTACAAAATATTTAAATAAT [XGTACX_site700] | 7.41 |
| TATTATAAAACATTATGTACATATTCTGAAAAATAG [XGTACX_site6577] | 7.07 |
| TATTTCTTATTTATTTTTTAAGGAAATTAAAGATTT [CACACA_negctrl_site258] | 6.68 |
| CAAAATAAAAAATTCACACACATATATATATATATA [CACACA_site2088] | 9.29 |
| ATAATATAATATAAAACACACATATGTACCTTCTAA [CACACA_site2761] | 7.04 |
| CAAGTTCAAAATACAAGGAAGAAACAAAACTTGGCG [GTGCAC_negctrl_site600] | 6.9 |
| TAAAAATATCTGTATACACACATATATATATATATA [CACACA_site6042] | 9.59 |
| AAAAAAAAAAAAAAAAGTACAAATCTTTATTTATTA [XGTACX_site3305] | 7.36 |
| TATTTAGAAATAAATACACACATACATTTTTGTATA [CACACA_site4557] | 6.74 |
| GTTTATTTTTTCATTTGTACACATAAATAAATATAT [XGTACX_site7752] | 7.47 |
| GGTATATATTCTATCACACATATTTCCATGAAAATA [CACACA_site4728] | 7.29 |
| TTAATTATATTATGCACACACAATTGGAAAAAAAAT [CACACA_site1958] | 8.42 |
| ACGTTAGGCTTATTTGCACACTTGTATTAAAATTTT [CACACA_site4854] | 7.27 |
| AAAAATATGCTTCCATGTACTTAAAAAAAAAATTTA [XGTACX_site3617] | 6.81 |
| TCAACTTGATTTATATGTACACATATAAGTAATTAT [XGTACX_site1798] | 7.13 |
| TATACAAACTATGATGCACACATATATATATGTATA [CACACA_site8327] | 7.48 |

| Sequence | gcPBM binding intensity (ln) |
| --- | --- |
| AAAAAAAAGAAAAAAACACACAATGGAAAAAATGTA [CACACA_site3675] | 6.77 |
| TTACATATATTGGGGTGTACATATATTTTCCTTCAC [XGTACX_site6224] | 7.48 |
| AAAAAAAAAAAAAAAAGTACACATAATTGTATATGT [XGTACX_site6339] | 7.34 |
| GTTATATGAACTTATATACACACCATTTTTGTAAAT [CACACA_site695] | 6.95 |
| AAATCATATTCTTATTTTATTTTTTTTATTTTTTAT [XGTACX_negctrl_site166] | 6.78 |
| TGTAGATATTTTTGGGGTACTTTATAAAGAACTAGT [XGTACX_site5635] | 7.28 |
| GAAAAACAAATATATTAACACACAAACATATAAACA [CACACA_site9315] | 7.13 |
| AAATATTGTTTTTTATGTACTTATTTTTATTTATTT [XGTACX_site3481] | 7.18 |
| ATGAAAAAGTGCTGGATTCTAAAGAAAAAAAAAAAA [CACACA_negctrl_site962] | 7 |
| ATAAAATCAACAAATCAGGATGTCACGTAAATATCA [CACACA_negctrl_site1009] | 6.85 |
| ATATTTTATATATTTGTGCACAATATTATAATATAT | 8.63 |
| ACATATTTATATGTCTGTACAAATATGCAATTTTTT [XGTACX_site5516] | 6.99 |
| TTAGATAGATTTGTACGTACTTATTATAACGTATCA [XGTACX_site5067] | 7.3 |
| AATTTATAAATAATTAATTTGATAAATTATAAAGGG [GTGCAC_negctrl_site544] | 7.02 |
| GGATAATCATACGAAGCATGCTGAATTTCCAAATAA [TGCATGCA_site1013] | 6.67 |
| AAAAAAATTAAATGGGGTACAATAAGGGTCAAATAT [XGTACX_site8669] | 7.19 |
| TTTTATTATATATATTGTACATATATTTTTATTTTT [XGTACX_site1564] | 7.1 |
| AAAAAAAAAAATGGCTGTACATAATATTTAAATAGG [XGTACX_site4286] | 7.04 |
| AAAAAAAAAAAAAACACACATACATACATACATATA [CACACA_site4121] | 7.22 |
| ATATTTATAACTTGGTGTACTTTGAAAAAAAAAAAA [XGTACX_site5194] | 6.97 |
| ATAATTTTTTAGATCACACATATAAATAAATAAATA [CACACA_site5175] | 6.95 |
| TTATATTAGCCGATGGTGCATATATTTATAGGAAAA [GTGCAC_site9518] | 10.1 |

| Sequence | gcPBM binding intensity (ln) |
| --- | --- |
| ATAAATCAAATGCACACACACAAAAAAAAAAAAAAA [CACACA_site6221] | 7.46 |
| TACAAAAATATATAAACACACAAATATAATATATAT [CACACA_site2942] | 7.09 |
| TAATAAATGACAAATTAACACACATATATTATATAT [CACACA_site9294] | 6.9 |
| CGCTCTCTTTAATATTGTACATATATATTATATATA [XGTACX_site7017] | 7.31 |
| TATATATAATATTTTTCACACACCATTTCCTTAAAC [CACACA_site1341] | 7.08 |
| TTTTTTTTTTTTTTTTGTACATAATAAATGTTCTTA [XGTACX_site6754] | 6.95 |
| TGTATCTATAATAAAACACACATTTTTAATGTGCTC [CACACA_site6788] | 6.78 |
| AATATATGTATATCCACACACATATATATATATATA [CACACA_site1633] | 9.32 |
| TATTTTGTATTCATTTGTCACATATAATAGATAGGA [TGCATGCA_negctrl_site9] | 7.14 |
| ATAGATATAACATATGCATGTAAAATATAACCACTC [TGCATGCA_site60] | 7.22 |
| TGTGCGGAAATAAGTGCACACATAGATATATGTATT [CACACA_site9227] | 10.8 |
| AATAAATAGAAAGAGGTGCTACATTATATTATTTAT | 8 |
| TTATACGAAGTACGTACACACACTTATATGTTACTA [CACACA_site4019] | 7.37 |
| ATATATTATATGTACACACACATATAAGGGATTATA [CACACA_site5] | 7.27 |
| TATAAATATATATATACACACACATACACAAAAAAA [CACACA_site9191] | 7.33 |
| AAAAATATGAAGACACAATATAGAAATAAAAATATA [XGTACX_negctrl_site244] | 6.82 |
| TATTACTTGATATATACACACATATAACATAAATGC [CACACA_site7783] | 6.99 |
| TAGAATAAACCAAGAAGTACTGTTTAATGAAAAGTA [XGTACX_site5712] | 6.92 |
| ATACCTAAAAAATATACACACATATTTATAAATATA [CACACA_site7260] | 7.05 |
| AAAATAACATAAAAGAGTACTAAACCAAGATCAAAT [XGTACX_site7973] | 7.13 |
| TATATTTATATTCTTACATTTTTTATGTTTTTTTTT [CACACA_negctrl_site1017] | 6.76 |
| TAAACAGACATATAAACACACATATAAACCGACATA [CACACA_site2478] | 6.88 |

| Sequence | gcPBM binding intensity (ln) |
| --- | --- |
| GTCATATTATTCTTTTCACACACGCGTTAATAATAA [CACACA_site9302] | 7.96 |
| TATTATAATATGTAGCGTACATTTTTTCTTTCTTTT [XGTACX_site7831] | 6.68 |
| AAGGTTATATAAAAAAGTACGCATAAGATGTTGTTC [XGTACX_site807] | 7.18 |
| TACTGTATTATAATTATGATTGACGAAATTAAAAAT [GTGCAC_negctrl_site358] | 6.91 |
| ATTAGAAAAAAGATAGCACACACGGCCCAATATATA [CACACA_site2417] | 6.7 |
| TGAAATTTATAATAGTGTACAAAGAAAAAAAAAAAA [XGTACX_site4965] | 7.03 |
| TTTATGGATGTGTATGCATGCCTAAATAAATATATG [TGCATGCA_site916] | 7.1 |
| ACGACATATGGATGATGTACTATCTTTATTATACAT [XGTACX_site6857] | 6.89 |
| TCTCAAAAAAAAAAAAAAAAAAAAAAATTAAAAAAT [CACACA_negctrl_site1120] | 6.77 |
| TAAATAATGTAAAAAACATCATCAAAATGTTAATTA [CACACA_negctrl_site1768] | 6.62 |
| CAATATAAAATAAAATGTACTTGTAGTAAAGGGATA [XGTACX_site1452] | 7.47 |
| ATAAAGGTTTTCCAAGCATGCCACATAGTGACATAC [TGCATGCA_site193] | 6.82 |
| GATGAGGACAAACACACACACATAAGTTGATACATA [CACACA_site3424] | 7.27 |
| AGATAGATACATACACGTACATATATATATACACAT [XGTACX_site4755] | 7.47 |
| GGTATAAAGAAATTTTGTACATATTTCTCCCTTTAA [XGTACX_site1874] | 7 |
| TAATATATAAGAAACAAAAAAAAATAAAAATATATA [TGCATGCA_negctrl_site153] | 6.81 |
| TAAAATAATTCGTAACGTACATATGTAATATAATAT [XGTACX_site6126] | 7.33 |
| CGCATACACGGACACACACACACATATATATATATA [CACACA_site4520] | 9.28 |
| AAAAAAAAAAAACACACACACACACTAATATATAAA [CACACA_site8302] | 7.12 |
| TAAATATATATCATCACACACACATACATAAATATA [CACACA_site183] | 7.09 |
| AGCTCTATATTTTACACATGCGATTTGGATATATAT [TGCATGCA_site105] | 7.11 |
| CCTTTATATTATAAAAGTACATAATATTTTATAAGT [XGTACX_site1629] | 7.08 |
